Tested on: mouse IgG in serum
Assay: Increased IgG catabolism in mice, mouse IgG ELISA
Format: in vivo
Settings: male NMRI mice; 16.3 μmol/kg; five i.v. injections at 0, 24, 48, 72 and 96 h
Experimental: The mice were treated with five intravenous injections given at 0, 24, 48, 72 and 96 h. Serum samples were taken at 0, 72, 120 and 168 h (termination of study) and stored at −20° C. The concentration of mouse IgG in serum was quantified by ELISA.
The concentration of mouse IgG in mouse serum samples was analyzed by a mouse IgG ELISA kit (Mabtech 3825-1AD-6) and performed as described by the manufacturer. The concentration of mIgG was calculated from a standard curve provided and GraphPad prism5 using a non-linear regression formula. The concentration of IgG in individual mice at 24, 72, 120 and 168 h were related to the level at 0 h and the results are therefore presented as percentage of IgG (0 h).

Z11948: Z07918 but starting with the amino acids AE instead of VD; in Table 6 and PK as fusion to PP013-Z03638 (AEAKYAKEQDAAAHEIRWLPNLTFDQRVAFIHKLADDPSQSSELLSEAKKLNDSQAPK; Engineered FcRn binding polypeptide)
concentration of endogenous IgG in mice: lowered the concentration of endogenous IgG
